The supplement of paper PMC4466236
Over roughly 33,000 sequences, “E-score (dimensionless, -0.5 to 0.5)” has its median near -0.058; the highest 2% begin near 0.35. The list shows a part of the results.

System: MvaT
Experiment: PBM 8-mer E-score (mean of HK and ME arrays) (E-score (dimensionless, -0.5 to 0.5)); higher = stronger relative binding preference; most listed sequences are background and not binding sites
How it was run: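 Full-length P. aeruginosa MvaT carrying an N-terminal glutathione S-transferase tag was tested by protein binding microarray following a previously described protocol. Two universal double-stranded 60-mer arrays, ME and HK, were used, each with a constant 25-mer primer region and a variable 35-mer region covering all 8-mers. The rank-based E-score is the mean of the two arrays, parsed with a custom script. Its range runs from -0.5 to 0.5 for each 8-mer.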

Sequence	PBM 8-mer E-score
ACTTGTGA	0.0507
AAGGTATG	0.0179
ATTCGAGA	-0.0857
AGAAAGCA	-0.0897
TGAAAACA	0.226
AACACAAG	0.162
GGTAGTAC	-0.022
GACATCAA	-0.0722
CTCCCGCA	-0.235
ACCCACCC	-0.0608
CACTGGGA	-0.1
TAGTTCCA	0.114
AATATCTG	0.207
ATTCTTCA	0.133
AATGGTGC	-0.104
AGGGGGGA	-0.254
AGCTCCGC	-0.33
AACAAGAC	-0.0275
ACTAACGC	0.0303
CGGTACAC	-0.0366
GACTGATA	0.0896
AACGGCGA	-0.0359
GGGCATCA	-0.211
CTGATGTC	-0.112
ACTGAACC	0.0517

Sequence	PBM 8-mer E-score
TCGGAACA	-0.0242
GGGGCTGA	-0.275
ACTCCTAG	-0.344
ATGACACC	-0.11
AGAGTCGC	-0.266
GAGCGTCC	-0.15
AATGGACG	-0.06
CGTAGCCC	-0.198
GAAACCGC	-0.204
AATGTTGG	0.197
ATTTAACG	0.255
AAGGGCCT	-0.25
ATCGATTA	0.149
GCACTACA	-0.0628
ACGTATCT	0.0451
CCAATGCC	-0.157
AGAAGCTG	-0.227
ACCTTAGA	-0.154
AGTAGAAC	0.0275
ACAGATTA	0.228
AGGATGCC	-0.261
CTAGAAGC	-0.207
CCAGTAGA	-0.136
ATCATAAC	0.289
GGATCTTA	-0.0201

Sequence	PBM 8-mer E-score
AGCATTCG	-0.0873
ATTGTCCA	0.146
AACAATTC	0.27
AGGTTTAG	-0.0852
CAAAAAGC	-0.0857
CGCGCGGC	-0.167
ATCTTAAC	0.244
TATCCCGA	0.0257
CAGGTCTC	-0.242
GAATCCCA	-0.225
TCGTTCAA	0.064
CTATTAAA	0.283
CCTGGCAC	-0.123
AATTAGTG	0.306
ATTGCTGC	-0.00394
CAACCCTC	-0.192
GGTTAACA	0.217
CCCGGCTA	-0.0733
CGGAGTCA	-0.13
AGTATAAC	0.36
CAGGGCCG	-0.235
ATGCTTAC	-0.0304
AACGGTAG	-0.0449
GCACTGGC	-0.204
GAAAAGCA	-0.00086

Sequence	PBM 8-mer E-score
CACCAGAC	-0.186
CTTCGAAG	0.069
GATCGTGC	-0.0176
GCAAGCAA	-0.15
AATTGGAG	0.0968
CCGCCGCC	-0.263
ACTCGTCC	-0.147
GAGCACAA	0.0374
CATGCGAC	-0.198
CAAATTTA	0.22
CATAACCG	-0.052
CCCCGGCC	-0.297
ATCTTGTG	0.111
AAGGAAGT	-0.00637
AACAAAGC	0.133
ATCCTCAG	-0.133
CGCCTCGA	-0.185
GCAGCATA	0.136
ACGCAAAA	0.167
CCCCTACA	-0.291
AGTTTCAT	0.202
TACAGACA	0.0794
GGTTTTAC	-0.00569
CCTTCCGA	-0.292
TGACGACA	-0.209

Sequence	PBM 8-mer E-score
CCCGCGCA	-0.193
CCACCGCA	-0.0349
TACATTCA	0.255
AGGACCGA	-0.168
CAGCGTGA	-0.0983
AGGATTTA	0.211
ATGTTTAG	0.212
TCTCCCAA	-0.183
GCTTCACC	-0.192
CTCATCAG	-0.131
AAGATAAA	0.313
AGTGTCAT	-0.0474
CCTCTATC	-0.175
AAGCGGTA	-0.0336
ACGCGAGG	-0.266
ACTTGGAG	-0.00834
AGTCGACT	-0.0437
ACAGATGT	-0.13
GCGCGCGA	-0.134
GGTGCGCA	-0.0657
ACTATGGC	-0.0671
AGGTTTGC	-0.0448
TATTCAAA	0.206
AGTGTGGA	0.183
ATTCGACG	-0.00124

Sequence	PBM 8-mer E-score
ATACCCAC	0.192
ACATTCCC	0.0292
GACGAAAC	0.0345
GTCATCTA	-0.0584
GACATGCC	-0.00308
AGAAATCT	-0.0234
GGGATTAA	0.144
ATAAGGAA	0.191
CAATAGCG	0.0716
CTATTAAC	0.315
AGCCCTAC	-0.176
GTGTTGCA	-0.0604
ATCAGCCG	-0.246
ACATCCGC	-0.0692
TGGGAGAA	-0.187
CATCCGAC	-0.207
ACAGGATG	-0.111
ACAGGAGA	-0.164
ACTCCCAG	-0.168
GGCCTCCC	-0.27
ACTCCCAT	-0.0992
AGGGCCAG	-0.221
TGCTTCCA	-0.296
ACTGCAGT	0.0352
AGAATTCA	0.0754

Sequence	PBM 8-mer E-score
CTTCTGGA	-0.0935
ACGAACAT	0.0702
CGCTGTAA	-0.0808
ACACATTG	0.113
CCGGGACG	-0.26
CATCTCCA	-0.0657
ATTGACTG	-0.0518
TTATACAA	0.359
ATTTTCGG	0.0781
AGCATATG	0.167
ATTGGGGC	-0.0672
AAGGCCCG	-0.242
AAGATAGG	0.0118
ACAAATCG	0.124
CCTAGGAC	-0.213
GAGTCAGC	-0.194
CCCCTCAC	-0.266
GCGATGCC	-0.208
GTGAGCAA	-0.0104
AAGAGCGT	-0.0294
ATTCACAC	0.149
GCTACGCA	-0.248
GCTTCTGA	-0.0315
AGACATGA	0.0486
GGAACTTA	0.273

Sequence	PBM 8-mer E-score
CTCCGTGC	-0.228
ACAGGGAC	-0.154
ATCAACAG	0.0164
AGATAGAA	0.0575
AGCTCCAT	-0.11
GGTATATA	0.355
ACACTATA	0.315
CATGAGGC	-0.18
GTCTATAA	0.172
TAAACCCA	0.186
CTTATCGA	0.108
CACAGAGC	-0.243
AGATTTTG	0.165
GACATAAC	0.125
ACTCAAGT	-0.00365
GGGCTACA	-0.0513
TGCGGACA	-0.146
AGTGTAGG	-0.009
AACAACAT	0.246
GCGCTTAC	-0.0786
CACCCGCA	-0.239
AACGTGCC	-0.147
AGCTTCTG	-0.185
GGCACTGA	-0.126
CTAACTTC	0.168

Sequence	PBM 8-mer E-score
AGAACATC	-0.00585
AATGTGCG	0.0505
ACAAAGGC	-0.122
ATGAGGGC	-0.239
GGACCTCA	-0.283
GCTTCAAA	0.195
CCGCAAGC	-0.228
GTCGCGAC	-0.226
AACCTATG	-0.0808
CGGTAAGC	-0.0976
AGCTTAAA	0.0748
ACTGATTC	-0.0368
GAAATTCA	0.133
CACGTGCA	-0.0519
CTTAGCAA	-0.011
ACTTAAAG	0.159
AATGTTAT	0.372
ACCACCCC	-0.252
CCTTACCA	-0.195
CCAGCACC	-0.386
CACCTCTA	-0.0961
CTGTTAAC	0.141
GGCCAGTA	-0.192
AGATCCCG	-0.12
AAGGTTAG	-0.109

Sequence	PBM 8-mer E-score
CGATCAGC	-0.295
AGGCTACA	-0.0897
ACTCTCAA	-0.114
CAGGGCCC	-0.248
CGTATTTA	0.267
AAATTCGC	0.16
CGCTGCTC	-0.214
CCTTAATC	0.00762
CTTTGGAA	0.117
CGGATATA	0.3
CTACAATC	0.136
CCGACAGG	-0.356
CAATACAG	0.0924
ATCGCGTG	-0.0831
CAACGCCC	-0.0923
TAAACAAA	0.329
CGGCTTGA	-0.132
TGACCAAA	0.0537
ATTAGGCG	0.0152
AATAATCT	0.314
ATGAACGA	-0.0238
GGAACCTA	-0.093
ACTGAATG	0.0195
CGCCTACG	-0.307
TTCAGGAA	0.177

Sequence	PBM 8-mer E-score
CTTGCCAA	-0.0787
AAAGACCA	0.0345
CACCTCAA	-0.124
ATGACATC	-0.0678
CCCTAGGG	-0.239
GAACCTCC	-0.301
GGTGACGA	-0.163
CAGCTCCC	-0.316
AATATCTA	0.323
ATTAAACA	0.391
ACTAGGCC	-0.14
TGACAACA	0.0143
CACGCGAG	-0.192
GAGCAGAC	-0.0893
AGTAAAGG	0.00928
AGAGGTGG	-0.123
ACTCGCAT	-0.132
CTTGGGGA	-0.0808
CACATGCC	-0.119
CCGTAAGG	-0.177
GTTAGATA	0.226
ATTTAGTC	0.188
GCCAACTA	-0.0948
CCATTCGC	-0.129
TGTCGTAA	0.174

Sequence	PBM 8-mer E-score
CCCGTGTC	-0.192
CAGAGGAA	-0.272
CGAAAAGC	0.0356
GATTCCGC	-0.208
CACGGTCG	-0.0582
TCTAGGCA	-0.16
CTGTCTAA	0.0235
TCCAAGCA	-0.0218
GCTGGTCC	-0.186
AATATGTC	0.233
CGCGAGGA	-0.323
ACTTGTAA	0.26
AAATAAGC	0.275
ACGGTGGG	-0.246
ATCGTAAC	0.139
CGGTACCG	-0.0831
GGCTTTTA	-0.0806
CATCGATA	0.107
GTGGGAAC	-0.114
GGCGCCAC	-0.241
CAGCTTCC	-0.23
CGCCGACG	-0.164
ACACCCCC	-0.251
ACGACTAA	0.0173
GCCAGCAA	-0.11

Sequence	PBM 8-mer E-score
GGCGGACC	-0.286
CCCGTTGA	0.0693
CTAAACAC	0.0995
TGGATACA	-0.00533
AAAGTAAG	0.303
CATCGGGC	-0.221
GGCGGGAA	-0.235
ACGACTAT	0.045
CTCATCCC	-0.214
ACCGCCCT	-0.0995
CAGATTGC	-0.199
AGGGATCG	-0.188
CACCTCAG	-0.2
CAAGGCCA	-0.192
CGTGAGGC	-0.326
CCGGTAAA	0.0751
AAGAGAGC	-0.143
CAGCACTG	-0.0168
GGCAAGGA	-0.147
CACTGTAG	-0.0486
ACTCGACC	-0.0835
ATAGATAA	0.186
AGCCATCG	-0.274
GACTGATC	-0.296
AAGCCCGC	-0.257

Sequence	PBM 8-mer E-score
ACGAGCCA	-0.164
GATTGACC	-0.106
AGAGCGCC	-0.212
AGTACCGA	0.0995
GCCACAAC	-0.0932
CCACAGGC	-0.289
CAGACCAG	-0.194
CCTGTGCA	-0.0129
AGACATTC	-0.0818
CCAAAGAA	0.0276
GATTGACA	-0.0924
AGGGTCTG	-0.21
AGTCTAAT	0.157
ATACCTCG	0.0641
CCTATCGC	-0.133
AAGCGGGC	-0.181
AATCGCGA	0.0997
TATGTCAA	0.141
CCGATCCG	-0.161
